# Experimental data: US20250186613A1 (The Trustees of the University of Pennsylvania, priority 2022, published 2025)
# B1: hGLP2.Fc: fusion protein: GLP2 with A2G substitution, thrombin leader, and IgG4 Fc fusion (SEQ ID NO: 13) (protein)
# chain: MAHVRGLQLPGCLALAALCSLVHSQHVFLAPQQARSLLQRVRRHGDGSFSDEMNTILDNLAARDFINWLIQTKITDGGGGGGSGGGGSGGGGSA[left out - human IgG4 Fc with S228P F234A L235A (EU numbers)]
# System: gut surface area
# Assay: Dosage study in NHPs
# Format: in vivo, rhesus macaques
# Experimental: In this study, we examine expression of human GLP-2 in nonhuman primates (NHPs; i.e., rhesus macaques).
# Necropsy is performed at day 60.
molecule,measurement,setting,value
B1,gut surface area (serum citrulline biomarker),"high dose 1×10^13 GC/kg IM, AAVrh91.CB7.CI.hGLP-2-Fc.rBG, FIG. 8B",substantial increase in gut surface area
same,anti-GLP-2-Fc antibody in NHP serum,"serum at 1:100 dilution, FIG. 8C",anti-GLP-2-Fc antibodies reduced its expression
